Measurements as given in the antibiotic and cytotoxicity screens of Wong et al. (2023).
This is one part of the list.

Legend:
HSkMC = human skeletal muscle cells; test: cytotoxicity call (relative viability < 0.9); conditions: 10 µM
HepG2 = test: cytotoxicity call (relative viability < 0.9); conditions: 10 µM
S. aureus RN4220 = test: growth inhibition call (relative growth <= 0.2); conditions: 50 µM

Compound | cytotoxicity call (HSkMC) | cytotoxicity call (HepG2) | growth inhibition call (S. aureus RN4220)
C[C@@H]1CN([C@@H](C)CO)C(=O)c2cc(NS(=O)(=O)c3cccs3)ccc2O[C@@H](C)CCCCO[C@H]1CN(C)C(=O)Nc1cccc2ccccc12 | inactive | inactive | inactive
CCN(CC)c1ccc(N2CC=C[C@@]34O[C@@H]5C=CCCOC(=O)[C@@H]5[C@H]3C(=O)N([C@@H](C)CO)[C@@H]4C2=O)cc1 | inactive | inactive | inactive
COCC(=O)N1C[C@@H](C)[C@@H](OC)CN(C)C(=O)c2cc(NC(=O)Nc3cccc(F)c3)ccc2OC[C@H]1C | inactive | inactive | inactive
CN(C)CC(=O)OCC(O)C(O)C(O)C(O)C(=O)[O-].[Na+] (stereo unspecified) | inactive | inactive | inactive
CCCNC(=O)C[C@H]1CC[C@H]2[C@@H](COc3ccc(NC(=O)Nc4ccc(C#N)cc4)cc3C(=O)N2C)O1 | inactive | inactive | inactive
C[C@@H]1CN([C@@H](C)CO)C(=O)c2c(c3ccccc3n2C)-c2ccccc2CO[C@H]1CN(C)S(=O)(=O)c1ccc(C(F)(F)F)cc1 | inactive | inactive | inactive
Cc1noc(C)c1S(=O)(=O)Nc1ccc2c(c1)C(=O)N([C@@H](C)CO)C[C@@H](C)[C@@H](CN(C)CC1CCCCC1)OCCCC[C@@H](C)O2 | inactive | inactive | inactive
C[C@@H](NC(=O)C[C@H]1CC[C@@H](NC(=O)CN2CCOCC2)[C@@H](CO)O1)c1ccccc1 | inactive | inactive | inactive
COc1ccc(S(=O)(=O)N2CC(NC(=O)Cn3ccc(=O)n(C)c3=O)C2)cc1 | inactive | inactive | inactive
CC(C)NNC(=O)c1ccncc1.O=P(O)(O)O | inactive | inactive | inactive
C[C@@H]1CN([C@@H](C)CO)C(=O)c2cc(NC(=O)C3CCCCC3)ccc2O[C@@H](C)CCCCO[C@@H]1CN(C)Cc1ccc(C(=O)O)cc1 | inactive | inactive | inactive
CN(C)C(=O)CN1CCC[C@]2(CCN(S(=O)(=O)c3cn(C)cn3)C2)C1 | inactive | inactive | inactive
COC(=O)C12CC3(C(=O)OC)CC(C(=O)OC)(CC(C(=O)OC)(C1)C3=O)C2=O | inactive | inactive | inactive
Cc1ccc(NC(=O)Cn2ccn(CCc3ccc(S(N)(=O)=O)cc3)c(=O)c2=O)cc1F | inactive | inactive | inactive
C[C@H]1CN([C@@H](C)CO)C(=O)Cc2cc(NC(=O)C3CCCCC3)ccc2O[C@@H]1CN(C)S(=O)(=O)c1cn(C)cn1 | inactive | inactive | inactive
C[C@@H]1CCCCO[C@H](CN(C)C(=O)Nc2cccc3ccccc23)[C@@H](C)CN([C@@H](C)CO)C(=O)c2cc(NC(=O)Nc3ccc(F)cc3)ccc2O1 | inactive | inactive | inactive
CC(C)NC(=O)Nc1cccc2c1O[C@H](CN(C)C(=O)Nc1ccc3c(c1)OCO3)[C@@H](C)CN([C@H](C)CO)C2=O | inactive | inactive | inactive
CC(C)NCC(O)COc1ccc(CC(N)=O)cc1 (stereo unspecified) | inactive | inactive | inactive
COc1ccc(S(=O)(=O)Nc2ccc3c(c2)C(=O)N([C@H](C)CO)C[C@@H](C)[C@H](CN(C)CC2CCCCC2)OCCCC[C@@H](C)O3)cc1 | inactive | inactive | inactive

Compound | cytotoxicity call (HSkMC) | cytotoxicity call (HepG2) | growth inhibition call (S. aureus RN4220)
O=C(NC1CC1)[C@@H]1c2ccccc2C(=O)N(Cc2cc(F)cc(C(F)(F)F)c2)[C@H]1c1ccc(CO)cc1 | inactive | inactive | inactive
C[C@@H]1CCCCO[C@@H](CN(C)C(=O)C2CCCCC2)[C@H](C)CN([C@@H](C)CO)C(=O)c2cc(NC(=O)CCC(F)(F)F)ccc2O1 | inactive | inactive | inactive
COc1ccc(NC(=O)N(C)C[C@@H]2Oc3ccc(NS(=O)(=O)c4c(C)noc4C)cc3CC(=O)N([C@H](C)CO)C[C@H]2C)cc1 | inactive | inactive | inactive
Nc1nc2nc[nH]c2c(=O)[nH]1 | inactive | inactive | inactive
C[C@@H]1CCCCO[C@H](CN(C)Cc2ccc(C(=O)O)cc2)[C@@H](C)CN([C@H](C)CO)C(=O)c2cc(NC(=O)Nc3ccc(F)cc3)ccc2O1 | inactive | inactive | inactive
CC(C)NC(=O)Nc1ccc2c(c1)CC(=O)N([C@@H](C)CO)C[C@H](C)[C@H](CN(C)Cc1ccc3c(c1)OCO3)O2 | inactive | inactive | inactive
C[C@H](CO)N1C[C@H](C)[C@H](CN(C)S(=O)(=O)c2ccccc2F)Oc2cc(C#Cc3cccc(F)c3)ccc2S1(=O)=O | inactive | inactive | inactive
C[C@@H]1CN([C@H](C)CO)S(=O)(=O)c2ccc(C#CC3(O)CCCC3)cc2O[C@@H]1CN(C)C(=O)Nc1ccccc1 | inactive | active | inactive
CS(=O)(=O)Cc1ccc(C(=O)O)cc1 | inactive | inactive | inactive
CC(C)NC(=O)Nc1cccc2c1O[C@H](CN(C)S(=O)(=O)c1cn(C)cn1)[C@H](C)CN([C@@H](C)CO)C2=O | inactive | inactive | inactive
C[C@@H]1CN([C@@H](C)CO)C(=O)c2cc(NS(=O)(=O)c3ccccc3)ccc2O[C@@H]1CN(C)Cc1ccncc1 | inactive | inactive | inactive
COc1ccc(NC(=O)N(C)C[C@@H]2OCCCC[C@H](C)Oc3ccc(NC(=O)Nc4ccc5c(c4)OCO5)cc3C(=O)N([C@@H](C)CO)C[C@@H]2C)cc1 | inactive | inactive | inactive
C[C@@H]1CCCCO[C@@H](CN(C)S(=O)(=O)c2ccc(Cl)cc2)[C@@H](C)CN([C@@H](C)CO)C(=O)c2cc(NC(=O)C3CCCCC3)ccc2O1 | inactive | inactive | inactive
CC1(C)CC2C(=O)CCC3OC3(C)CCC21 (stereo unspecified) | inactive | inactive | inactive
COc1ccc(CN(C)C[C@H]2OCCCC[C@@H](C)Oc3ccc(NC(=O)Nc4ccccc4)cc3C(=O)N([C@H](C)CO)C[C@@H]2C)cc1 | inactive | inactive | inactive
COc1ccc2c3c(n(c2c1)C)[C@H](CO)N(CC1CCOCC1)C[C@]13CCN(CC1)C(=O)c1cnccn1 | inactive | inactive | inactive
C[C@H](CO)N1C[C@H](C)[C@H](CN(C)Cc2ccc(Oc3ccccc3)cc2)Oc2ccc(NC(=O)Nc3ccc(C(F)(F)F)cc3)cc2C1=O | active | active | inactive
C[C@@H]1OC2=C(Cl)C(=O)N3CCC[C@@H]3C[C@]21O | inactive | inactive | inactive
COc1cccc(-c2cc(=O)c3cc(OC)ccc3o2)c1 | inactive | inactive | inactive

Compound | cytotoxicity call (HSkMC) | cytotoxicity call (HepG2) | growth inhibition call (S. aureus RN4220)
C[C@@H]1CN([C@@H](C)CO)C(=O)Cc2cc(NC(=O)CCCCCC(=O)Nc3ccccc3N)ccc2O[C@H]1CN(C)Cc1ccc(C(F)(F)F)cc1 | inactive | inactive | inactive
Cc1noc(C)c1S(=O)(=O)N(C)C[C@@H]1Oc2ccc(NC(=O)Cc3ccccc3)cc2CC(=O)N([C@H](C)CO)C[C@H]1C | inactive | inactive | inactive
C[C@@H]1CCCCO[C@@H](CN(C)Cc2ccc3c(c2)OCO3)[C@@H](C)CN([C@H](C)CO)C(=O)c2cc(NS(=O)(=O)c3ccc(Cl)cc3)ccc2O1 | inactive | active | inactive
O=C(CCc1ccc(O)cc1)c1c(O)cc(O)cc1O | inactive | inactive | inactive
C[C@H](N[P@@](=O)(OC[C@H]1O[C@@H](n2ccc(N)nc2=O)C(F)(F)[C@@H]1O)Oc1ccccc1)C(=O)OCc1ccccc1 | inactive | inactive | inactive
COc1ccc(S(=O)(=O)N2C[C@H](O)COC[C@@H]3O[C@@H](CC(=O)NCCCN4CCOCC4)CC[C@H]32)cc1 | inactive | inactive | inactive
COc1ccc(NC(=O)N(C)C[C@H]2OCCCC[C@@H](C)Oc3ccc(NC(=O)Nc4ccccc4)cc3C(=O)N([C@@H](C)CO)C[C@H]2C)cc1 | inactive | inactive | inactive
COc1ccc(-c2cnc3c(c2)C(=O)N([C@@H](C)CO)C[C@@H](C)[C@@H](CN(C)C(=O)Cc2ccncc2)O3)cc1 | inactive | inactive | inactive
NC[C@@H]1O[C@H](C23CC4CC(CC(C4)C2)C3)Cc2c1ccc(O)c2O | inactive | inactive | active
C[C@@H]1CCCCO[C@@H](CN(C)C(=O)CCC(F)(F)F)[C@H](C)CN([C@H](C)CO)C(=O)c2cc(NS(=O)(=O)c3ccc(Cl)cc3)ccc2O1 | inactive | inactive | inactive
COC[C@H]1CN(C(=O)C2CC2)Cc2cnn(C)c21 | inactive | inactive | inactive
CN1C(=O)c2cc(NS(=O)(=O)c3cccc(F)c3)ccc2OC[C@H]2O[C@@H](CC(=O)NCCN3CCCCC3)CC[C@@H]21 | inactive | inactive | inactive
COCC(=O)N[C@@H]1C=C[C@@H](CC(=O)N2CCCCC2)O[C@@H]1CO | inactive | inactive | inactive
CC(/C=C/C(=O)NO)=C\c1ccccc1OCc1cn(C[C@@H]2CCCN2S(=O)(=O)c2ccc(C)cc2)nn1 | inactive | active | inactive
O=Cc1ccccc1O[C@@H]1O[C@H](CO)[C@H](O)[C@@H](O)[C@H]1O | inactive | inactive | inactive
COc1ccc(NC(=O)Nc2ccc3c(c2)C(=O)N([C@H](C)CO)C[C@H](C)[C@@H](CN(C)Cc2ccc(C(=O)O)cc2)OCCCC[C@H](C)O3)cc1 | inactive | inactive | inactive
C[C@@H]1CCCCO[C@@H](CN(C)S(=O)(=O)c2cccs2)[C@@H](C)CN([C@@H](C)CO)C(=O)c2cc(NS(C)(=O)=O)ccc2O1 | inactive | inactive | inactive
C[C@@H]1CCCCO[C@H](CN(C)CC2CC2)[C@@H](C)CN([C@H](C)CO)C(=O)c2cc(NC(=O)Cc3ccccc3)ccc2O1 | inactive | inactive | inactive
CN(C)CC#Cc1ccc([C@H]2[C@H]3CN(C(=O)c4cccnc4)CC(=O)N3[C@H]2CO)cc1 | inactive | inactive | inactive
